The numbers were not newly measured in PMC11006913, which cites them from elsewhere.

Residue numbers refer to the chain shown, from its start. The list shows a part of the results.

Targets include ARX (Homo sapiens) (UniProt Q96QS3); ARX L343Q (Homo sapiens) (UniProt Q96QS3); ARX P353L (Homo sapiens) (UniProt Q96QS3); ARX P353R (Homo sapiens) (UniProt Q96QS3); ARX R332H (Homo sapiens) (UniProt Q96QS3); ARX T333N (Homo sapiens) (UniProt Q96QS3); ISX (Homo sapiens) (UniProt Q2M1V0); ISX R83Q (Homo sapiens) (UniProt Q2M1V0).
Holding throughout (details): PBM; conditions not shown; double strand, one strand shown; scale: upbm affinity estimate (log intensity, higher = more binding, comparable within an allelic series)
Series [1] has as its target T1, HESX1 E149K (Homo sapiens) (UniProt Q9UBX0).
T1 sequence: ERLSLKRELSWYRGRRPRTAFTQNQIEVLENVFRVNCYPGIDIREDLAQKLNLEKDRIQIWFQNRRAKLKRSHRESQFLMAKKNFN

The target in series [2] is T2, HESX1 N125S (Homo sapiens) (UniProt Q9UBX0).
T2 sequence: T1 sequence with N31S, K55E

In series [3] the target is T3, HESX1 R160C (Homo sapiens) (UniProt Q9UBX0).
T3 sequence: T1 sequence with K55E, R66C

Series [4] concerns the target PROP1 R112Q (Homo sapiens) (UniProt O75360).
For series [5], the target named is PROP1 R99Q (Homo sapiens) (UniProt O75360).

In the case of CAATTATC [8-mer CAATTATC], the binding signal was 12.8 in the series with ARX (Homo sapiens); 11 with ARX L343Q (Homo sapiens); 12.3 with ARX P353L (Homo sapiens); 10.9 with ARX P353R (Homo sapiens); 11.1 in the series with ARX R332H (Homo sapiens); 12 with ARX T333N (Homo sapiens). Further, the binding signal in series [1] was 11.9; in series [2], 12.6; in series [3] it was 10.4; in the series with ISX (Homo sapiens) it was 15.1; with ISX R83Q (Homo sapiens), 13.9; in [4], 12.8. The binding signal in series [5] was 12.4.
Take AATTAATT [8-mer AATTAATT]: the binding signal with ARX (Homo sapiens) was 13.2; with ARX L343Q (Homo sapiens), 10.9; with ARX P353L (Homo sapiens), 12.7; with ARX P353R (Homo sapiens), 10.7; with ARX R332H (Homo sapiens), 11.2; in the series with ARX T333N (Homo sapiens), 12.4. In addition, the binding signal in [1] is 11.8; in series [2], 12.5; in series [3] it was 10.3; with ISX (Homo sapiens), 15.4; with ISX R83Q (Homo sapiens), 15; in series [4] it was 13. The binding signal in series [5] is 12.3.
Consider TAATTGAA [8-mer TAATTGAA], for which the binding signal with ARX (Homo sapiens) is 12.8; with ARX L343Q (Homo sapiens), 10.7; with ARX P353L (Homo sapiens), 12.4; in the series with ARX P353R (Homo sapiens), 10.6; in the series with ARX R332H (Homo sapiens), 10.9; with ARX T333N (Homo sapiens), 11.9. Moreover, the binding signal is 11.6 in series [1]; 12.4 in series [2]; 10.1 in series [3]; 15.1 in the series with ISX (Homo sapiens); 14.1 with ISX R83Q (Homo sapiens); 12.7 in series [4]. Also, the binding signal in [5] was 12.1.
CGTAATTA [8-mer CGTAATTA]: the binding signal is 13.1 with ARX (Homo sapiens); 11 in the series with ARX L343Q (Homo sapiens); 12.6 with ARX P353L (Homo sapiens); 10.9 with ARX P353R (Homo sapiens); 11.1 with ARX R332H (Homo sapiens); 12.1 with ARX T333N (Homo sapiens). The binding signal in [1] is 11.7; in series [2], 12.4; in series [3], 10.4; with ISX (Homo sapiens), 15.2; with ISX R83Q (Homo sapiens), 14; in [4], 12.8. For the same sequence, the binding signal in series [5] was 12.4.
For the sequence GTAATTGA [8-mer GTAATTGA], the binding signal with ARX (Homo sapiens) was 12.8; with ARX L343Q (Homo sapiens), 10.9; in the series with ARX P353L (Homo sapiens), 12.5; with ARX P353R (Homo sapiens), 10.7; with ARX R332H (Homo sapiens), 11; with ARX T333N (Homo sapiens), 11.9. Moreover, the binding signal in series [1] is 11.6; in series [2], 12; in series [3], 10.3; with ISX (Homo sapiens), 15.1; with ISX R83Q (Homo sapiens) it was 13.7; in series [4], 12.7. The binding signal in series [5] is 12.2.
On to GGCAATTA [8-mer GGCAATTA], for which the binding signal in the series with ARX (Homo sapiens) is 12.8; in the series with ARX L343Q (Homo sapiens) it was 10.8; with ARX P353L (Homo sapiens), 12.4; in the series with ARX P353R (Homo sapiens), 10.8; with ARX R332H (Homo sapiens), 10.9; with ARX T333N (Homo sapiens) it was 11.9. The binding signal in [1] is 11.6; in series [2], 12.1; in series [3], 10.3; with ISX (Homo sapiens), 14.9; with ISX R83Q (Homo sapiens), 13.9; in series [4], 12.7. For the same sequence, the binding signal in series [5] is 12.2.
Regarding CAATTAAG [8-mer CAATTAAG], the binding signal with ARX (Homo sapiens) is 12.7; with ARX L343Q (Homo sapiens), 10.7; with ARX P353L (Homo sapiens), 12.3; with ARX P353R (Homo sapiens), 10.6; with ARX R332H (Homo sapiens), 10.9; with ARX T333N (Homo sapiens) it was 12. The binding signal in [1] is 11.7; in [2], 12.4; in series [3], 10.2; in the series with ISX (Homo sapiens), 15.3; with ISX R83Q (Homo sapiens) it was 14.6; in series [4], 12.7. Also, the binding signal in [5] is 12.2.
As for AAATTAAT [8-mer AAATTAAT], the binding signal is 12.8 with ARX (Homo sapiens); 10.8 with ARX L343Q (Homo sapiens); 12.2 with ARX P353L (Homo sapiens); 10.7 with ARX P353R (Homo sapiens); 11 with ARX R332H (Homo sapiens); 12 with ARX T333N (Homo sapiens). Besides, the binding signal was 11.2 in [1]; 11.4 in [2]; 10.3 in series [3]; 14.8 in the series with ISX (Homo sapiens); 13.6 with ISX R83Q (Homo sapiens); 12.7 in series [4]. In addition, the binding signal in series [5] was 12.
Take AATAATTA [8-mer AATAATTA]: the binding signal with ARX (Homo sapiens) is 13; with ARX L343Q (Homo sapiens), 10.9; in the series with ARX P353L (Homo sapiens), 12.5; with ARX P353R (Homo sapiens), 10.8; in the series with ARX R332H (Homo sapiens), 11.1; with ARX T333N (Homo sapiens), 12.1. In addition, the binding signal in series [1] was 11.7; in series [2], 12.9; in series [3] it was 10.4; in the series with ISX (Homo sapiens) it was 15.1; in the series with ISX R83Q (Homo sapiens), 14.1; in [4], 12.7. The binding signal in [5] was 12.2.
For AATTAGTC [8-mer AATTAGTC], the binding signal with ARX (Homo sapiens) is 12.9; with ARX L343Q (Homo sapiens), 10.9; with ARX P353L (Homo sapiens), 12.5; with ARX P353R (Homo sapiens) it was 10.7; in the series with ARX R332H (Homo sapiens), 11; in the series with ARX T333N (Homo sapiens), 12. The binding signal was 11.4 in series [1]; 11.3 in [2]; 10.3 in series [3]; 14.7 with ISX (Homo sapiens); 13.5 with ISX R83Q (Homo sapiens); 12.7 in series [4]. In addition, the binding signal in [5] was 12.2.
